# Source: paper PMC4336329 (PLoS ONE, 2015)
# In all, about 310,000 compounds went through this assay and about 14,000 (4.5%) showed an effect of 50% or more. Effects have a minus sign here. This is one part of the list.
# Target: human ether-à-go-go-related gene (hERG) potassium channel (human, UniProt Q12809)
# Assay: primary screen, population patch clamp on CHO cells stably expressing hERG
# 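Also: peak tail current of the secondary pulse compared with the same well before compound.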
# human ether-à-go-go-related gene (hERG) potassium channel, sequence (Q12809 whole entry, looked up): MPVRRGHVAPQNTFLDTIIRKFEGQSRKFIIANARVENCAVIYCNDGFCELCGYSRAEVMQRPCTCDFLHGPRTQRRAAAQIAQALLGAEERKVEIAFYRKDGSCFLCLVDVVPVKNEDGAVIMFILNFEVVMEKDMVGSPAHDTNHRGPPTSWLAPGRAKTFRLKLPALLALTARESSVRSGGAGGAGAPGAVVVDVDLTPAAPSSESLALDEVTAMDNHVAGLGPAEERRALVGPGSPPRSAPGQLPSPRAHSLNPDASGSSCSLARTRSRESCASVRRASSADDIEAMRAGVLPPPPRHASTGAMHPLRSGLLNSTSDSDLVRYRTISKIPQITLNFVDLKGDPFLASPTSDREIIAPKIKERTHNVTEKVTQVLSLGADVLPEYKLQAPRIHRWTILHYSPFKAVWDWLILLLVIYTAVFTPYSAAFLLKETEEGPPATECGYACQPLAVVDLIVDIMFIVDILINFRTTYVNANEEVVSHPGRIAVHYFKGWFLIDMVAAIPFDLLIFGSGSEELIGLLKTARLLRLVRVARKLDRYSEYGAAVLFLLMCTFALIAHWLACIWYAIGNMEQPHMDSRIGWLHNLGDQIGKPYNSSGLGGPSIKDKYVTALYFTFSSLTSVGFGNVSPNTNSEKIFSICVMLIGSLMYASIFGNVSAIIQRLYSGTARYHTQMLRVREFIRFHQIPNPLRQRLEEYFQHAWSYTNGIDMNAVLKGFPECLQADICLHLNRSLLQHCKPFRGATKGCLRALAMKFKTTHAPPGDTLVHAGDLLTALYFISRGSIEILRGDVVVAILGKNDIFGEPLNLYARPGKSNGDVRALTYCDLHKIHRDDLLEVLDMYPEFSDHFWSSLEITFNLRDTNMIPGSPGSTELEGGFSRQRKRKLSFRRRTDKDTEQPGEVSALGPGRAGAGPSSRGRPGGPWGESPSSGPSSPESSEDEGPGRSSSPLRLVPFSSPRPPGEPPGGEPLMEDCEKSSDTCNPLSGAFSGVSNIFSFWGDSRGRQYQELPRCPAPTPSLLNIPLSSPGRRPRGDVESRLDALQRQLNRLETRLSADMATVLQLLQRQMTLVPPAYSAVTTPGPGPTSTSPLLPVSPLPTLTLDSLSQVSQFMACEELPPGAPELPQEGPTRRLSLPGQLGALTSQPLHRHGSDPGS
row,SMILES,"hERG current change (%, negative = inhibition) at 10uM [%]"
1,O=C(NCCN1CCOCC1)c1ccc2c(c1)ncn2C1CCCC1,-6.39
2,CCc1ccc(-c2ccc3nnc(SCC(N)=O)n3n2)cc1,8.33
3,COc1ccccc1-n1c(C)nc2cc(C(=O)NCCN3CCOCC3)ccc21,9.24
4,O=C(CS(=O)(=O)c1ccccc1)NC1CCCCC1,14.5
5,CC(=O)c1sc(NC(=O)CSCc2c(C)noc2C)nc1-c1ccccc1,-27.4
6,O=C(Nc1nc(-c2ccccc2)cs1)c1cccc(S(=O)(=O)N2CCN(Cc3ccccc3)CC2)c1,17.6
7,Cc1cc(C)cc(N(CCC#N)C(=O)CSC2=Nc3ccccc3C3CC=NN23)c1 (stereo not drawn),16.1
8,CCCNC(=O)c1ccc(N2CCC3(CC2)CC(c2cccc(Br)c2)=NO3)c(NC(=O)c2ccccc2)c1,-0.8
9,CCOc1ccccc1CN1CCN(CCCn2cccn2)CC1CCO (stereo not drawn),-57.4
10,Cn1c(CNC(=O)OC(C)(C)C)nnc1SCc1c(Cl)cccc1Cl,2.14
11,COc1ccc(CN2CCN(CC(=O)Nc3ccccc3C(=O)NC3CC3)CC2)cc1F,-91.3
12,Cc1nc2nc(-c3ccccc3)[nH]n2c(=O)c1Cc1ccccc1,-8.48
13,CCCC(NCC(O)COc1ccc(-c2ccccc2)cc1)c1ccccc1 (stereo not drawn),10.3
14,CC(C)COC(=O)c1ccc(NC(=O)C2C3C=CC(C3)C2C(=O)O)cc1 (stereo not drawn),-3.17
15,O=C(Nc1ccccc1)N1C(=O)C2(OCCO2)c2ccccc21,26.3
16,CC(C)(C)C(=O)Nc1ccc(-c2nnc3n2CCCCC3)cc1,7.31
17,COc1ccc(OC)c(-c2cc(C(=O)N/N=C/c3ccc(F)cc3)c3ccccc3n2)c1,1.22
18,O=S(=O)(c1ccc(-c2cnc(C3CC3)o2)cc1)N1CCN(c2ccccc2)CC1,13.1
19,CC(C)N(Cc1ccccc1)C(=S)Nc1ccc(OC(F)F)cc1,-56.7

row,SMILES,"hERG current change (%, negative = inhibition) at 10uM [%]"
1,CC1(c2ccccc2)NC(=O)N(CC(=O)N2CCN(S(=O)(=O)c3cccc([N+](=O)[O-])c3)CC2)C1=O (stereo not drawn),5.57
2,CC(=O)Nc1nnc(C)s1,11.9
3,COc1cc([N+](=O)[O-])ccc1-c1ccc(/C=N\n2cnnc2)o1,4.76
4,CC(=O)Nc1ccc(S(=O)(=O)N2CCN(S(=O)(=O)N3CCOCC3)CC2)cc1,8.58
5,Cc1nn(CC(=O)N(C)C2(C#N)CCCCC2)c(C)c1[N+](=O)[O-],-6.06
6,O=C(COC(=O)c1ccccn1)Nc1ccccc1OC(F)F,6.71
7,CS(=O)(=O)N(CC(=O)Nc1cccc(F)c1)c1cccc([N+](=O)[O-])c1,-33.8
8,O=C(c1ccccc1)c1ccc(N2CCCC2)cc1,-4.18
9,C=C1CCC[C@]2(C)C[C@H]3OC(=O)C(CNC(C)(CO)CO)[C@H]3CC12 (stereo partly drawn),7.4
10,C#CCNc1nc(C)nc2c1nnn2Cc1ccccc1F,10.6
11,c1ccc(N2CCN(c3nc4cc5c(cc4s3)OCCO5)CC2)cc1,-12.7
12,Nn1c(SCC(=O)N2CCOCC2)nnc1-c1ccc(Cl)cc1Cl,6.65
13,COc1cccc(CN2CCN(C(=O)c3cc(-c4cccnc4)nc4ccc(C)cc34)CC2)c1,-12.7
14,O=C(CSc1ccsc1[N+](=O)[O-])N1CCCCCC1,1.2
15,CCC(=NCCOc1ccc(Cl)cc1)c1c(O)n(C)c(=O)n(C)c1=O,-29.8
16,COc1ccccc1N1CCN(C2=CC(=O)CCC2)CC1,4.72
17,Cn1c(NCCCN2CCOCC2)nc2c1c(=O)n(Cc1ccc(Cl)c(Cl)c1)c(=O)n2C,-46
18,O=C(Nc1nccs1)c1cc2c(s1)-c1ccccc1OC2,16.2
19,O=C1OCCC1Sc1nnc(-c2ccccc2Br)n1Cc1ccccc1 (stereo not drawn),-24

row,SMILES,"hERG current change (%, negative = inhibition) at 10uM [%]"
1,Cc1ccc(CSCC(=O)NCCc2ccccc2)cc1,-3.13
2,CCOC(=O)Nc1ccc2c(c1)ncn2C1CCCCC1,-8.98
3,COc1ccc2cc(C(=O)N3CCN(c4cccc(C)c4C)CC3)[nH]c2c1,-5.32
4,COc1ccc(NCc2nnc(SCC(=O)Nc3cc(C)cc(C)c3)o2)cc1,-0.894
5,COc1ccc(/C(N)=N/OC(=O)CCCc2ccccc2)cc1,-11.3
6,COc1cccc(C(=O)Oc2c(Br)cc(Br)cc2/C=N/NC(=O)c2cc(C)[nH]n2)c1,7.48
7,Cl.NCCC(=O)N1c2ccccc2Sc2ccccc21,-0.703
8,COc1cccc(NC(=O)c2ccccc2Br)c1,0.484
9,Cc1nnc(SC(C)C(=O)NC2CCCCC2C)n1N (stereo not drawn),6.45
10,CCC(Sc1nncn1C)C(=O)Nc1nnc(-c2ccc(Cl)cc2)s1 (stereo not drawn),1.7
11,CCOC(=O)N1CCN(C(=S)Nc2ccc(C)cc2)CC1,6.67
12,COc1ccc(F)cc1Cn1nc(C(=O)O)c2ccccc2c1=O,15.1
13,Cc1ccc(-n2ncc3c(N4CCCC(C)C4)ncnc32)c(C)c1 (stereo not drawn),-8.2
14,CCOC(=O)COc1ccc(C2CC(C)=NN2c2ccccc2)cc1 (stereo not drawn),-0.31
15,CCCOC(=O)c1ccc(NC(=O)C(=O)NCC2CCCO2)cc1 (stereo not drawn),4.7
16,CCOC(=O)c1sc(NC(=O)c2ccc(S(=O)(=O)N3CCCCCC3)cc2)nc1-c1ccccc1,24.5
17,CCOc1ccc(NC(=S)NCc2ccc3c(c2)OCO3)cc1,2.65
18,COc1ccc(N2C(=O)CC(Sc3nc4ccccc4s3)C2=O)cc1 (stereo not drawn),6.98
19,Cl.N=c1n(CCCOc2ccc(Br)cc2)c2ccccc2n1CC(N)=O,-44.7
